Some of the results follow.

This assay deals with HSkMC (human skeletal muscle cells). In words: cytotoxicity call (relative viability < 0.9). The conditions noted are these: 10 µM.
`Cc1noc(C)c1S(=O)(=O)N(C)C[C@H]1OCCCC[C@H](C)Oc2ccc(NC(=O)Nc3cccc4ccccc34)cc2C(=O)N([C@@H](C)CO)C[C@@H]1C`: the cytotoxicity call is “inactive”. Under `C[C@H]1CN([C@@H](C)CO)C(=O)Cc2cc(NS(=O)(=O)c3cn(C)cn3)ccc2O[C@@H]1CN(C)S(=O)(=O)c1ccc(F)cc1` stands “inactive”. Under `C[C@@H]1CN([C@H](C)CO)C(=O)c2cccc(NC(=O)Nc3ccc(C(F)(F)F)cc3)c2O[C@@H]1CN(C)S(C)(=O)=O` stands “inactive”. Then `Cc1cc(O)c(C(=O)/C=C/N(C)C)c(=O)o1`, with “inactive”; and `C[C@H](CO)N1C[C@H](C)[C@H](CN(C)C(=O)CCC(F)(F)F)OCCCC[C@H](C)Oc2ccc(NC(=O)c3ccccc3)cc2C1=O`, with “inactive”. With `COc1ccc(-c2oc3cc(OC)c(OC)c(OC)c3c(=O)c2OC)cc1OC`, the cytotoxicity call was “inactive”.

Take `COc1cccc(S(=O)(=O)N2C[C@@H](O)COC[C@H]3O[C@H](CC(=O)N4CCN(c5ccccc5)CC4)CC[C@@H]32)c1`: the cytotoxicity call is “inactive”. Then `CN(C)C(=O)c1cccc(-c2cccc(-c3nc(C(=O)N4CCCCC4)cc4c3[C@@H](CCO)N([S@](=O)C(C)(C)C)C4)c2)c1`, with “inactive”; and `C[C@H]1CN([C@@H](C)CO)C(=O)Cc2cc(NC(=O)Cn3cnnn3)ccc2O[C@H]1CN(C)S(=O)(=O)c1cccs1`, with “inactive”; and `C[C@H]1CN([C@@H](C)CO)C(=O)c2cc(/C=C/c3ccccc3)cnc2O[C@H]1CN(C)S(=O)(=O)c1cn(C)cn1`, with “inactive”.

For `C[C@H](CO)N1C[C@H](C)[C@H](CN(C)Cc2ccc(C(=O)Nc3ccccc3N)cc2)Oc2ccc(NC(=O)CCN3CCOCC3)cc2CC1=O`, the cytotoxicity call is “inactive”. For `Cc1noc(C)c1S(=O)(=O)N(C)C[C@@H]1Oc2ccc(NC(=O)CCC(F)(F)F)cc2CC(=O)N([C@H](C)CO)C[C@H]1C`, the cytotoxicity call is “inactive”. With `C[C@@H]1CCCCO[C@@H](CN(C)Cc2ccc(C(=O)O)cc2)[C@@H](C)CN([C@H](C)CO)C(=O)c2cc(NC(=O)NC3CCCCC3)ccc2O1`, the cytotoxicity call is “inactive”. Under `C[C@H](CO)N1C[C@H](C)[C@H](CN(C)S(=O)(=O)c2ccc(F)cc2)Oc2ncc(-c3cccc(C(=O)N(C)C)c3)cc2C1=O` stands “inactive”.

`COc1ccc(NC(=O)N(C)C[C@@H]2Oc3ccc(NC(=O)C4CC4)cc3CC(=O)N([C@@H](C)CO)C[C@@H]2C)cc1`: the cytotoxicity call was “inactive”. Then `Cc1nccn1-c1cccc(CN)c1`, with “inactive”. Turning to `C[C@@H]1CN([C@H](C)CO)C(=O)Cc2cc(NS(=O)(=O)c3cn(C)cn3)ccc2O[C@@H]1CN(C)Cc1ccncc1`, the cytotoxicity call was “inactive”. Then `COc1ccccc1-c1cc(=O)c2c(OC)cccc2o1`, with “inactive”. With `Cc1ccc(S(=O)(=O)Nc2cccc3c2O[C@@H](CN(C)C(=O)Nc2ccc(C(F)(F)F)cc2)[C@H](C)CN([C@@H](C)CO)C3=O)cc1`, the cytotoxicity call was “inactive”.

Regarding `COc1ccc(CN(C)C[C@H]2OCCCC[C@H](C)Oc3ccc(NS(=O)(=O)c4cccs4)cc3C(=O)N([C@@H](C)CO)C[C@@H]2C)cc1`, the cytotoxicity call is “inactive”. Then `COCC#Cc1ccc2c(c1)O[C@H](CN(C)S(C)(=O)=O)[C@H](C)CN([C@H](C)CO)S2(=O)=O`, with “inactive”; and `CC(C)N1C[C@@H](C)[C@H](CN(C)S(=O)(=O)c2ccc(F)cc2)OCCCC[C@H](C)Oc2ccc(NC(=O)Nc3ccccc3)cc2C1=O`, with “inactive”. With `Cc1ccc(S(=O)(=O)N(C)C[C@H]2Oc3ccc(N(C)C)cc3CC(=O)N([C@H](C)CO)C[C@@H]2C)cc1`, the cytotoxicity call is “inactive”. Under `C[C@@H]1CCCCO[C@H](CN(C)Cc2ccccc2)[C@H](C)CN([C@@H](C)CO)C(=O)c2cc(NS(=O)(=O)c3ccc(F)cc3)ccc2O1` stands “inactive”; under `C[C@H](CO)N1C[C@H](C)[C@H](CN(C)Cc2ccc(C(=O)O)cc2)Oc2ccc(NC(=O)CCN3CCOCC3)cc2CC1=O`, “inactive”. For the compound `C[C@H](CO)N1C[C@H](C)[C@H](CN(C)S(=O)(=O)c2cccc(F)c2)Oc2cc(Br)ccc2S1(=O)=O`, the cytotoxicity call was “inactive”. Then `COc1cccc(C(=O)Nc2ccc3c(c2)C(=O)N(C)[C@H]2CC[C@H](CC(=O)Nc4ccc5c(c4)CCCC5)O[C@@H]2CO3)c1`, with “inactive”. Then `COc1ncnc(NS(=O)(=O)c2ccc(N)cc2)c1OC`, with “inactive”; and `CCCN(CCC)c1cc(N2CCCC2)c2ccccc2c1`, with “inactive”.

As to `C[C@]12C(=O)N(CCC(=O)O)C(=O)[C@H]1[C@@H]1C=C[C@@H]2C1`, the cytotoxicity call is “inactive”.

Turning to `O=C(O)C[C@@H]1CC[C@H]2[C@@H](COC[C@@H](O)CN2S(=O)(=O)c2ccc(F)cc2)O1`, the cytotoxicity call was “inactive”. As for `Cc1noc(C)c1NC(=O)Nc1ccc2c(c1)C(=O)N([C@@H](C)CO)C[C@@H](C)[C@@H](CN(C)Cc1ccccc1)OCCCC[C@@H](C)O2`, the cytotoxicity call was “inactive”. Under `CN(C)CC(=O)N1CC(=O)N2[C@H](CO)[C@@H](c3ccc(C#Cc4cccnc4)cc3)[C@H]2C1` stands “inactive”; under `C[C@@H]1CCCCO[C@@H](CN(C)Cc2ccc(C(F)(F)F)cc2)[C@@H](C)CN([C@H](C)CO)C(=O)c2cc(NS(=O)(=O)c3ccc(Cl)cc3)ccc2O1`, “inactive”; under `C[C@@H]1CCCCO[C@H](CN(C)Cc2ccc(C(=O)O)cc2)[C@@H](C)CN([C@@H](C)CO)C(=O)c2cc(NC(=O)NC3CCCCC3)ccc2O1`, “inactive”. Then `Cc1noc(C)c1NC(=O)N(C)C[C@H]1OCCCC[C@H](C)Oc2ccc(NS(=O)(=O)c3ccc(F)cc3)cc2C(=O)N([C@@H](C)CO)C[C@H]1C`, with “inactive”. Regarding `C[C@H](CO)N1C[C@H](C)[C@@H](CN(C)Cc2ccc(C(=O)Nc3ccccc3N)cc2)Oc2c(NC(=O)Nc3ccc(F)cc3)cccc2C1=O`, the cytotoxicity call was “inactive”. Under `Cc1ccc(S[C@]2(C(=O)NCC(C)C)CC(=O)N(Cc3cc(C(F)(F)F)cc(C(F)(F)F)c3)[C@@H]2c2ccc(CO)cc2I)cc1` stands “inactive”; under `C[C@@H]1CCCCO[C@H](CN(C)C(=O)c2ccncc2)[C@@H](C)CN([C@H](C)CO)C(=O)c2cc(NC(=O)NC3CCCCC3)ccc2O1`, “inactive”. Under `O=C(C[C@@H]1C[C@H]2c3cc(NC(=O)C4CCOCC4)ccc3O[C@H]2[C@@H](CO)O1)NCc1ccc(Cl)cc1` stands “inactive”.

These data come from the antibiotic and cytotoxicity screens of Wong et al. (2023).
